# Experimental data from the supplement of paper PMC4967469.
# Compound: CCc1nc(-c2cccc(C)c2)c(-c2ccnc(NC(=O)c3ccccc3)c2)s1 [TAK-715]
# Assay: Viability of human cancer cell lines after 72 h of drug (GDSC screen)
# Details: top dose inferred
# Procedure: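 Human cancer cell lines in 384-well plates, medium with 10% serum, drug for 72 h over a 256-fold dose range (nine 2-fold or five 4-fold steps up to the top dose). Adherent lines were fixed and stained with the nucleic acid dye Syto60, suspension lines read with resazurin; signal relative to control wells, capped at 0 and 100%. One two-parameter sigmoid per drug and line, fitted in a mixed model over all curves with the slope shared within a line.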
Cell Line,AUC,pIC50
"NCI-H1755 (lung adenocarcinoma, adherent, top dose 20 µM)",0.943,< 4.70
"NCI-H1770 (non-small cell lung carcinoma, suspension, top dose 20 µM)",0.954,< 4.70
"NCI-H1781 (lung adenocarcinoma, adherent, top dose 20 µM)",0.989,< 4.70
"NCI-H1792 (lung adenocarcinoma, adherent, top dose 20 µM)",0.968,< 4.70
"NCI-H1793 (lung adenocarcinoma, adherent, top dose 20 µM)",0.962,< 4.70
"NCI-H1836 (small cell lung carcinoma, suspension, top dose 20 µM)",0.95,< 4.70
"NCI-H1838 (lung adenocarcinoma, adherent, top dose 20 µM)",0.984,< 4.70
"NCI-H1869 (lung squamous cell carcinoma, adherent, top dose 20 µM)",0.927,< 4.70
"NCI-H1876 (small cell lung carcinoma, adherent, top dose 20 µM)",0.965,< 4.70
"NCI-H1915 (large cell lung carcinoma, adherent, top dose 20 µM)",0.981,< 4.70
"NCI-H1944 (lung adenocarcinoma, adherent, top dose 20 µM)",0.838,4.83
"NCI-H1975 (lung adenocarcinoma, adherent, top dose 20 µM)",0.934,< 4.70
"NCI-H1993 (lung adenocarcinoma, adherent, top dose 20 µM)",0.949,< 4.70
"NCI-H2009 (lung adenocarcinoma, adherent, top dose 20 µM)",0.981,< 4.70
"NCI-H2023 (lung adenocarcinoma, adherent, top dose 20 µM)",0.956,< 4.70
"NCI-H2029 (small cell lung carcinoma, adherent, top dose 20 µM)",0.931,< 4.70
"NCI-H2030 (lung adenocarcinoma, adherent, top dose 20 µM)",0.942,< 4.70
"NCI-H2052 (mesothelioma, adherent, top dose 20 µM)",0.975,< 4.70
"NCI-H2081 (small cell lung carcinoma, suspension, top dose 20 µM)",0.924,< 4.70
"NCI-H2085 (lung adenocarcinoma, adherent, top dose 20 µM)",0.885,< 4.70
"NCI-H2087 (lung adenocarcinoma, semi-adherent, top dose 20 µM)",0.567,5.71
"NCI-H2110 (non-small cell lung carcinoma, adherent, top dose 20 µM)",0.978,< 4.70
"NCI-H2122 (lung adenocarcinoma, adherent, top dose 20 µM)",0.983,< 4.70
"NCI-H2135 (non-small cell lung carcinoma, adherent, top dose 20 µM)",0.929,< 4.70
"NCI-H2141 (small cell lung carcinoma, suspension, top dose 20 µM)",0.969,< 4.70
"NCI-H2170 (lung squamous cell carcinoma, adherent, top dose 20 µM)",0.972,< 4.70

Cell Line,AUC,pIC50
"NCI-H2171 (small cell lung carcinoma, suspension, top dose 20 µM)",0.964,< 4.70
"NCI-H2172 (non-small cell lung carcinoma, adherent, top dose 20 µM)",0.97,< 4.70
"NCI-H2196 (small cell lung carcinoma, adherent, top dose 20 µM)",0.964,< 4.70
"NCI-H2227 (small cell lung carcinoma, semi-adherent, top dose 20 µM)",0.986,< 4.70
"NCI-H2228 (lung adenocarcinoma, adherent, top dose 20 µM)",0.946,< 4.70
"NCI-H2291 (lung adenocarcinoma, adherent, top dose 20 µM)",0.98,< 4.70
"NCI-H2342 (lung adenocarcinoma, adherent, top dose 20 µM)",0.935,< 4.70
"NCI-H2347 (lung adenocarcinoma, adherent, top dose 20 µM)",0.983,< 4.70
"NCI-H2405 (lung adenocarcinoma, adherent, top dose 20 µM)",0.942,< 4.70
"NCI-H2444 (non-small cell lung carcinoma, adherent, top dose 20 µM)",0.98,< 4.70
"NCI-H2452 (mesothelioma, adherent, top dose 20 µM)",0.979,< 4.70
"NCI-H3122 (lung adenocarcinoma, adherent, top dose 20 µM)",0.907,< 4.70
"NCI-SNU-1 (stomach, suspension, top dose 20 µM)",0.784,5.06
"NCI-SNU-5 (stomach, suspension, top dose 20 µM)",0.975,< 4.70
"NCI-SNU-16 (stomach, suspension, top dose 20 µM)",0.966,< 4.70
"NEC8 (testis, adherent, top dose 20 µM)",0.938,< 4.70
"NH-12 (neuroblastoma, adherent, top dose 20 µM)",0.871,< 4.70
"NK-92MI (lymphoid neoplasm, suspension, top dose 20 µM)",0.824,4.97
"NKM-1 (acute myeloid leukaemia, suspension, top dose 20 µM)",0.892,< 4.70
"NMC-G1 (glioma, adherent, top dose 20 µM)",0.945,< 4.70
"NOMO-1 (acute myeloid leukaemia, suspension, top dose 20 µM)",0.942,< 4.70
"NOS-1 (osteosarcoma, adherent, top dose 20 µM)",0.783,4.97
"NTERA-2 cl.D1 (testis, adherent, top dose 20 µM)",0.959,< 4.70
"NU-DUL-1 (B-cell lymphoma, suspension, top dose 20 µM)",0.885,4.84
"NUGC-3 (stomach, adherent, top dose 20 µM)",0.939,< 4.70
"NUGC-4 (stomach, adherent, top dose 20 µM)",0.942,< 4.70

Cell Line,AUC,pIC50
"NY (osteosarcoma, adherent, top dose 20 µM)",0.972,< 4.70
"OACM5-1 (oesophagus, semi-adherent, top dose 20 µM)",0.827,4.84
"OACp4C (oesophagus, adherent, top dose 20 µM)",0.814,4.86
"OAW-28 (ovary, adherent, top dose 20 µM)",0.91,< 4.70
"OAW-42 (ovary, adherent, top dose 20 µM)",0.924,< 4.70
"OC-314 (ovary, adherent, top dose 20 µM)",0.943,< 4.70
"OCI-AML2 (acute myeloid leukaemia, suspension, top dose 20 µM)",0.952,< 4.70
"OCI-AML3 (acute myeloid leukaemia, suspension, top dose 20 µM)",0.954,< 4.70
"OCI-AML5 (acute myeloid leukaemia, suspension, top dose 20 µM)",0.845,4.90
"OCI-LY-19 (B-cell lymphoma, suspension, top dose 20 µM)",0.887,4.71
"OCI-M1 (acute myeloid leukaemia, suspension, top dose 20 µM)",0.859,4.97
"OCUB-M (breast, adherent, top dose 20 µM)",0.858,4.89
"OCUM-1 (stomach, adherent, top dose 20 µM)",0.966,< 4.70
"OE19 (oesophagus, adherent, top dose 20 µM)",0.98,< 4.70
"OE21 (oesophagus, adherent, top dose 20 µM)",0.978,< 4.70
"OE33 (oesophagus, adherent, top dose 20 µM)",0.979,< 4.70
"OMC-1 (cervix, adherent, top dose 20 µM)",0.942,< 4.70
"ONS-76 (medulloblastoma, adherent, top dose 20 µM)",0.949,< 4.70
"OPM-2 (myeloma, suspension, top dose 20 µM)",0.898,4.77
"OS-RC-2 (kidney, adherent, top dose 20 µM)",0.906,< 4.70
"OSC-19 (head and neck, adherent, top dose 20 µM)",0.94,< 4.70
"OSC-20 (head and neck, adherent, top dose 20 µM)",0.927,< 4.70
"OV-7 (ovary, adherent, top dose 20 µM)",0.933,< 4.70
"OV-17R (ovary, adherent, top dose 20 µM)",0.902,< 4.70
"OV-56 (ovary, adherent, top dose 20 µM)",0.967,< 4.70

# pIC50: −log10 of the molar value. The IC50 comes from the fitted curve, where viability falls to half of the control; where the fit passes the top or lowest dose, that dose stands as a limit. The AUC spans the tested range (256-fold, ending at the top dose) of the same fit; it is 1 without any effect and falls as sensitivity rises. Where the top dose is marked as inferred, it was derived from the fitted curves, not read from the paper.
